# Experimental data reported in the supplement of paper PMC8728848.
# The other results are listed elsewhere or left out.
# B1: CIH1 (Colletotrichum higginsianum) (protein)
# chain: LPQATPTTPTPTSASAAATISATSSPTCSPGPVIDYTVVSGDTLTIISQRFSSGICNIADASGITNPNFLSLGQVLQVPTYVCTPDNTSCLAKEGSDTCVEGGPATHTIVAGDTFFLVAQSLGLDVNALLAANEGVDPLLLQIGDVINIPVC
# Key:
# Test in all cases: glycan array binding signal (z-score within array); higher = stronger binding
# Details in all cases: glycan notation: IUPAC condensed, linker removed
# [1] = molecular target: Gal(b1-4)GlcNAc(b1-3)[GlcNAc(b1-6)]Gal(b1-4)GlcNAc
# Procedure, shortened: (§1)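 The binding signal is a Z-score computed within each array and averaged over linkers. Arrays of the same protein sequence at different concentrations or buffers were also averaged together. Data originate from 3228 arrays in the Consortium for Functional Glycomics database, kept only where the protein sequence was available.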
# [2] = molecular target: Gal(b1-4)GlcNAc(b1-6)Gal(b1-4)GlcNAc
# Procedure, shortened: as §1
# [3] = molecular target: Gal(b1-4)GlcNAc(b1-6)GalNAc
# Procedure, shortened: as §1
# [4] = molecular target: Gal(b1-4)GlcNAc(b1-6)[Gal(b1-3)]GalNAc
# Procedure, shortened: as §1
# [5] = molecular target: Gal(b1-4)GlcNAc6P
# Procedure, shortened: as §1
# [6] = molecular target: Gal(b1-6)Gal
# Procedure, shortened: as §1
# [7] = molecular target: Gal3S(b1-3)GalNAc
# Procedure, shortened: as §1
# [8] = molecular target: Gal3S(b1-3)GlcNAc
# Procedure, shortened: as §1
# [9] = molecular target: Gal3S(b1-3)[Fuc(a1-4)]GlcNAc
# Procedure, shortened: as §1
# [10] = molecular target: Gal3S(b1-4)Glc
# Procedure, shortened: as §1
# [11] = molecular target: Gal3S(b1-4)Glc6S
# Procedure, shortened: as §1
# [12] = molecular target: Gal3S(b1-4)GlcNAc
# Procedure, shortened: as §1
# [13] = molecular target: Gal3S(b1-4)GlcNAc6S
# Procedure, shortened: as §1
# [14] = molecular target: Gal3S(b1-4)[Fuc(a1-3)]Glc
# Procedure, shortened: as §1
# [15] = molecular target: Gal3S(b1-4)[Fuc(a1-3)]Glc6S
# Procedure, shortened: as §1
# [16] = molecular target: Gal3S4S(b1-4)GlcNAc
# Procedure, shortened: as §1
# [17] = molecular target: Gal3S6S(b1-4)GlcNAc
# Procedure, shortened: as §1
# [18] = molecular target: Gal3S6S(b1-4)GlcNAc6S
# Procedure, shortened: as §1
# [19] = molecular target: Gal4S(b1-4)GlcNAc
# Procedure, shortened: as §1
# [20] = molecular target: Gal4S6S(b1-4)GlcNAc
# Procedure, shortened: as §1
# [21] = molecular target: Gal6P(b1-4)GlcNAc
# Procedure, shortened: as §1
# [22] = molecular target: Gal6S(b1-3)GlcNAc
# Procedure, shortened: as §1
# [23] = molecular target: Gal6S(b1-3)GlcNAc6S
# Procedure, shortened: as §1
# [24] = molecular target: Gal6S(b1-4)Glc
# Procedure, shortened: as §1
# [25] = molecular target: Gal6S(b1-4)Glc6S
# Procedure, shortened: as §1
# [26] = molecular target: Gal6S(b1-4)GlcNAc
# Procedure, shortened: as §1
# [27] = molecular target: Gal6S(b1-4)GlcNAc6S
# Procedure, shortened: as §1
# [28] = molecular target: GalNAc(a1-3)Gal
# Procedure, shortened: as §1
# [29] = molecular target: GalNAc(a1-3)GalNAc
# Procedure, shortened: as §1
# [30] = molecular target: GalNAc(a1-3)GalNAc(b1-3)Gal(a1-4)Gal(b1-4)Glc
# Procedure, shortened: as §1
# [31] = molecular target: GalNAc(a1-3)GalNAc(b1-3)Gal(a1-4)Gal(b1-4)GlcNAc
# Procedure, shortened: as §1
# [32] = molecular target: GalNAc(b1-3)Gal
# Procedure, shortened: as §1
# [33] = molecular target: GalNAc(b1-3)Gal(a1-4)Gal(b1-4)GlcNAc
# Procedure, shortened: as §1
# [34] = molecular target: GalNAc(b1-3)Gal(a1-4)Gal(b1-4)GlcNAc(b1-3)Gal(b1-4)Glc
# Procedure, shortened: as §1
# [35] = molecular target: GalNAc(b1-3)Gal(a1-6)Gal(b1-4)Glc
# Procedure, shortened: as §1
# [36] = molecular target: GalNAc(b1-3)GalNAc
# Procedure, shortened: as §1
# [37] = molecular target: GalNAc(b1-4)Gal(b1-4)Glc
# Procedure, shortened: as §1
# [38] = molecular target: GalNAc(b1-4)GlcNAc
# Procedure, shortened: as §1
# [39] = molecular target: GalNAc(b1-4)GlcNAc(b1-2)Man(a1-3)[GalNAc(b1-4)GlcNAc(b1-2)Man(a1-6)]Man(b1-4)GlcNAc(b1-4)GlcNAc
# Procedure, shortened: as §1
# [40] = molecular target: GalNAc(b1-4)GlcNAc6S
# Procedure, shortened: as §1
# [41] = molecular target: GalNAc(b1-6)GalNAc
# Procedure, shortened: as §1
# [42] = molecular target: GalNAc3S(b1-4)GlcNAc
# Procedure, shortened: as §1
# [43] = molecular target: GalNAc3S(b1-4)GlcNAc3S
# Procedure, shortened: as §1
# [44] = molecular target: GalNAc4S6S(b1-4)GlcNAc
# Procedure, shortened: as §1
# [45] = molecular target: GalNAc6S(b1-4)GlcNAc
# Procedure, shortened: as §1
binder,measurement,setting,value
B1,glycan array binding signal (z-score),[1],-0.073
same,glycan array binding signal (z-score),[2],-0.078
same,glycan array binding signal (z-score),[3],-0.06
same,glycan array binding signal (z-score),[4],-0.072
same,glycan array binding signal (z-score),[5],-0.083
same,glycan array binding signal (z-score),[6],-0.072
same,glycan array binding signal (z-score),[7],-0.067
same,glycan array binding signal (z-score),[8],-0.054
same,glycan array binding signal (z-score),[9],-0.079
same,glycan array binding signal (z-score),[10],-0.073
same,glycan array binding signal (z-score),[11],-0.071
same,glycan array binding signal (z-score),[12],-0.067
same,glycan array binding signal (z-score),[13],-0.071
same,glycan array binding signal (z-score),[14],-0.081
same,glycan array binding signal (z-score),[15],0.006
same,glycan array binding signal (z-score),[16],-0.022
same,glycan array binding signal (z-score),[17],-0.063
same,glycan array binding signal (z-score),[18],-0.065
same,glycan array binding signal (z-score),[19],-0.061
same,glycan array binding signal (z-score),[20],-0.059
same,glycan array binding signal (z-score),[21],-0.07
same,glycan array binding signal (z-score),[22],-0.057
same,glycan array binding signal (z-score),[23],-0.054
same,glycan array binding signal (z-score),[24],-0.079
same,glycan array binding signal (z-score),[25],-0.08
same,glycan array binding signal (z-score),[26],-0.081
same,glycan array binding signal (z-score),[27],-0.061
same,glycan array binding signal (z-score),[28],-0.078
same,glycan array binding signal (z-score),[29],-0.072
same,glycan array binding signal (z-score),[30],-0.088
same,glycan array binding signal (z-score),[31],-0.066
same,glycan array binding signal (z-score),[32],-0.033
same,glycan array binding signal (z-score),[33],-0.079
same,glycan array binding signal (z-score),[34],-0.089
same,glycan array binding signal (z-score),[35],-0.07
same,glycan array binding signal (z-score),[36],-0.061
same,glycan array binding signal (z-score),[37],-0.067
same,glycan array binding signal (z-score),[38],-0.045
same,glycan array binding signal (z-score),[39],-0.07
same,glycan array binding signal (z-score),[40],-0.056
same,glycan array binding signal (z-score),[41],-0.068
same,glycan array binding signal (z-score),[42],-0.066
same,glycan array binding signal (z-score),[43],-0.07
same,glycan array binding signal (z-score),[44],-0.071
same,glycan array binding signal (z-score),[45],-0.075
